{
  "source": "PubChem BioAssay AID485364",
  "about": "(National Center for Advancing Translational Sciences (NCATS), 2010)",
  "note": "About 11,000 (3.1%) of roughly 360,000 compounds were called active. Inconclusive results, whose numbers are uncertain, are shown with a selection of clear calls. Calls follow the shape of the dose curve; as a rule, active = well fitted inhibition curve with a large enough effect; inconclusive = small, poorly fitted or top-dose-only effect; inactive = no such curve, though single readings can be large or run the other way. Potencies of inconclusive entries are left out as doubtful fits. % is scaled to controls: 0 for no effect and ±100 for the full control effect; potency is read from the fitted curve at half-maximal effect; tags tell the direction and shape of the fitted curve.",
  "data": [
    {"target": "Schistosoma mansoni thioredoxin glutathione reductase (TGR) (UniProt Q962Y6)", "test": "qHTS Assay for the Inhibitors of Schistosoma Mansoni Peroxiredoxins; also: nearly all actives have a fitted effect of over 60% in size", "details": "purified TGR, DTNB reduction, TNB absorbance 405 nm; activity change, negative = inhibition: at 114 µM (top of the series) unless noted", "in_short": "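Kinetic colorimetric format: TGR-catalysed, NADPH-driven DTNB reduction monitored via TNB absorbance. Enzyme dispensed at 20 nM; compound exposure 15 min at room temperature before reaction start.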", "values": [
      {"compound": "COc1ccc2nc(NC(=O)c3ccccc3O)sc2c1", "activity change, negative = inhibition": "inactive: -8.9%"},
      {"compound": "O=c1[nH]c2c(s1)C(c1ccco1)C1C3CCC(C3)C1S2", "note": "(configuration not stated)", "Potency": "inconclusive [inhibitor, partial curve]"},
      {"compound": "Cc1ccc(NCc2nnc(SCC(=O)c3ccccc3)n2Cc2ccco2)c(C)c1", "Potency": "inconclusive [inhibitor, full curve]"},
      {"compound": "CCOC(=O)c1c(S(=O)(=O)NCC(=O)Nc2ccc(C)c(Cl)c2)c(C)n(C)c1C", "activity change, negative = inhibition": "inactive: 2.64%"},
      {"compound": "Cc1cccc(OCC(=O)O/N=C(\\N)Cc2ccc(Cl)cc2)c1", "Potency": "inconclusive [inhibitor, full curve, poor fit]"},
      {"compound": "CC[C@H](C)/C=C(C)/C=C/C(=O)Cc1cc(O)c(C)c(O)c1C=O", "Potency": "active: 28.2 µM"},
      {"compound": "O=C(Nc1ccccc1C(=O)NCCCN1CCOCC1)c1ccc(F)cc1", "Potency": "active: 89.1 µM"},
      {"compound": "Cn1cc(C(=O)NCCO)c(=O)c2ccccc21", "activity change, negative = inhibition": "inactive: -1.52%"},
      {"compound": "CC1Nc2ncnc(N3CCN(c4ccccc4)CC3)c2N(Cc2ccc(Cl)cc2)C1=O", "note": "(configuration not stated)", "Potency": "inconclusive [inhibitor, partial curve]"},
      {"compound": "CC(=O)c1c(C)[nH]c(C(=O)NCC2CCCCC2)c1C", "activity change, negative = inhibition": "inactive: 4.58%"},
      {"compound": "CC(=O)C1=C(C)NC(SCC(=O)c2ccc(Cl)c(Cl)c2)=C(C#N)C1c1ccco1", "note": "(configuration not stated)", "Potency": "inconclusive [inhibitor, partial curve]"},
      {"compound": "CC(=O)C1CCCN(C(=O)c2ccc3oc(CCc4ccccc4)nc3c2)C1", "note": "(configuration not stated)", "Potency": "inconclusive [inhibitor, partial curve, poor fit]"},
      {"compound": "Cc1cc(S(=O)(=O)NCc2ccco2)c(C)cc1Cl", "Potency": "inconclusive [inhibitor, partial curve]"},
      {"compound": "COc1ccc(CNC(=O)CSc2ncn[nH]2)cc1OC", "Potency": "inconclusive [inhibitor, single point]"},
      {"compound": "Cc1cc(NC(=S)NC(=O)C2CC2)ccc1Br", "Potency": "inconclusive [inhibitor, partial curve]"},
      {"compound": "COc1ccc(NC(=S)Nc2ccc3nccnc3c2)cc1", "Potency": "active: 31.6 µM"},
      {"compound": "Cc1ccc(S(=O)(=O)N/N=C/c2cc(Br)c(C)o2)cc1", "Potency": "active: 0.1 µM"},
      {"compound": "Cc1ccc(-n2ncc3c(N4CCN(CCO)CC4)ncnc32)cc1Cl", "Potency": "active: 7.94 µM"},
      {"compound": "CCCn1c(NCc2ccc3c(c2)OCO3)nc2ccccc21", "Potency": "active: 89.1 µM"},
      {"compound": "O=C1CC2(CON=C2c2ccc(F)cc2)C(=O)N1c1ccc(F)cc1", "note": "(configuration not stated)", "Potency": "inconclusive [inhibitor, partial curve]"},
      {"compound": "Cc1snc(SCc2ccc(F)cc2)c1C#N", "activity change, negative = inhibition": "inactive: -0.817%"},
      {"compound": "CN(C)c1ccc2nc3ccc(=[N+](C)C)cc-3sc2c1", "Potency": "inconclusive [inhibitor, partial curve]"},
      {"compound": "CN(Cc1ccc(F)cc1)Cc1nc(-c2ccccc2)no1", "Potency": "inconclusive [inhibitor, full curve, poor fit]"},
      {"compound": "CCCCCCSc1nc(O)c(C2OC(=O)c3c2ccc(OC)c3OC)c(=O)n1-c1ccccc1", "note": "(configuration not stated)", "Potency": "active: 12.6 µM"},
      {"compound": "C/C=C(\\C)C(=O)OC1C(C)=C2C(C1OC(=O)CCCCC)C(C)(OC(C)=O)CC(OC(=O)CCC)C1(O)C2OC(=O)C1(C)O", "note": "(configuration not stated)", "Potency": "inconclusive [inhibitor, partial curve]"},
      {"compound": "CCCC(=O)N=C1SC2CS(=O)(=O)CC2N1c1ccc(-c2nc3ccc(C)cc3s2)cc1", "note": "(configuration not stated)", "activity change, negative = inhibition": "inactive: 6.92%"},
      {"compound": "Cc1cc(NCCN2CCCCC2)n2c(nc3ccccc32)c1C#N", "activity change, negative = inhibition": "inactive: 0.42%"},
      {"compound": "COc1ccc(/C=C2/Sc3ccc(C(=O)NCCN4CCCCCC4)cc3NC2=O)cc1", "activity change, negative = inhibition": "inactive: 2.13%"},
      {"compound": "COc1ccc(/C=C2\\SC(=S)N(CCC(=O)Nc3ccc(O)cc3)C2=O)cc1", "activity change, negative = inhibition": "inactive: 1.36%"},
      {"compound": "NC(=O)C1CCN(C(c2ccccc2F)c2nnnn2Cc2ccco2)CC1", "note": "(configuration not stated)", "Potency": "inconclusive [inhibitor, partial curve]"},
      {"compound": "O=C(N/N=C/c1ccc(N2CCOCC2)s1)c1ccccc1Br", "Potency": "inconclusive [inhibitor, full curve, poor fit]"},
      {"compound": "COc1ccc(CNC(=O)C(c2ccco2)N(Cc2cccs2)C(=O)Cc2cccs2)cc1", "note": "(configuration not stated)", "Potency": "inconclusive [inhibitor, partial curve]"},
      {"compound": "COc1cc(/C=C2\\CCC/C(=C\\c3ccc(O)c(OC)c3)C2=O)ccc1O", "Potency": "inconclusive [inhibitor, partial curve]"},
      {"compound": "CCN(CC(=O)Nc1ccc2c(c1)OCCO2)Cc1cc(=O)oc2c(C)c(C)ccc12", "activity change, negative = inhibition": "inactive: -10.7%"},
      {"compound": "COc1ccc(C(CNC(=O)c2cc3c(s2)CCCC3)N2CCOCC2)cc1", "note": "(configuration not stated)", "Potency": "inconclusive [inhibitor, full curve]"},
      {"compound": "O=C(CCl)N1CCCC1c1ccc2c(c1)OCCO2", "note": "(configuration not stated)", "Potency": "active: 3.55 µM"},
      {"compound": "COc1cccc(N2C(=O)CSC23C(=O)N(Cc2ccccc2)c2ccccc23)c1", "note": "(configuration not stated)", "activity change, negative = inhibition": "inactive: -10.7%"},
      {"compound": "CC(=O)NNC(=S)NC(=O)c1cccc([N+](=O)[O-])c1", "Potency": "inconclusive [inhibitor, full curve, poor fit]"},
      {"compound": "Cc1ccc(/C=N/NC(=O)c2nnn(-c3nonc3N)c2CSc2ccccc2)o1", "Potency": "inconclusive [inhibitor, partial curve]"},
      {"compound": "CCN(c1ccccc1)S(=O)(=O)c1cccc(C(=O)NCC(c2ccco2)N2CCCC2)c1", "note": "(configuration not stated)", "Potency": "inconclusive [inhibitor, full curve, poor fit]"},
      {"compound": "CCCCNC(=S)Nc1cccc2cnccc12", "Potency": "inconclusive [inhibitor, partial curve]"},
      {"compound": "CN1C(=O)c2ccccc2Sc2ccc(NC(=O)COc3ccccc3)cc21", "activity change, negative = inhibition": "inactive: 0.866%"},
      {"compound": "CS(=O)(=O)c1ccc(C(=O)OCC(=O)Nc2cccc(S(=O)(=O)N3CCCC3)c2)cc1", "activity change, negative = inhibition": "inactive: -1.02%"},
      {"compound": "COCCN(CC(=O)Nc1cccc(C)c1C)C(=O)c1cc2ccccc2cc1OC", "Potency": "inconclusive [inhibitor, partial curve]"},
      {"compound": "Cc1ccc(S(=O)(=O)c2nc(-c3ccccc3Cl)oc2N2CCCCCC2)cc1", "Potency": "inconclusive [inhibitor, partial curve]"},
      {"compound": "CCOc1ccc2[nH]c(=O)c(C(c3nnnn3C3CCCCC3)N3CCN(C)CC3)cc2c1", "note": "(configuration not stated)", "Potency": "inconclusive [inhibitor, partial curve]"},
      {"compound": "N#Cc1ccc(N=c2ssnc2Cl)cc1", "Potency": "inconclusive [inhibitor, partial curve]"},
      {"compound": "O=C(O)/C=C/C(=O)Nc1ccc2c(c1)C(=O)c1ccccc1C2=O", "Potency": "active: 50.1 µM"},
      {"compound": "COC(=O)c1ccc(CSc2nnc(-c3ccncc3)n2Cc2ccccc2)o1", "Potency": "inconclusive [inhibitor, full curve, poor fit]"},
      {"compound": "CCn1cc(C(=O)N2CCN(c3ccc(F)cc3)CC2)c(=O)c2cc(S(=O)(=O)N3CCOCC3)ccc21", "activity change, negative = inhibition": "inactive: -0.121%"},
      {"compound": "O=C(O)C1=C[C@H](c2ccc(Br)cc2)C[C@H](OCCCCO)O1", "Potency": "inconclusive [inhibitor, partial curve]"},
      {"compound": "Cc1ccc(N(CC(=O)NC(C)(C)C)C(=O)CS(=O)CC(=O)Nc2ccc3c(c2)OCO3)cc1", "note": "(configuration not stated)", "activity change, negative = inhibition": "inactive: 0%"},
      {"compound": "COc1ccccc1N1C(=O)c2ccc(C(=O)Nc3ccc(C(=O)O)cc3)cc2C1=O", "Potency": "active: 89.1 µM"},
      {"compound": "COc1c(C)cc(C(=O)C2CCCN(Cc3cnc(N4CCOCC4)s3)C2)cc1C", "note": "(configuration not stated)", "activity change, negative = inhibition": "inactive: 3.55% [at 57.1 µM]"},
      {"compound": "CCCN1C(=O)C2(C(C(=O)c3ccc(C)o3)=C(O)C(=O)N2CCCN2CCOCC2)c2ccccc21", "note": "(configuration not stated)", "Potency": "inconclusive [inhibitor, partial curve, poor fit]"},
      {"compound": "Cc1ccc2c(c1)sc1nc(-c3cc4ccccc4oc3=O)cn12", "Potency": "inconclusive [inhibitor, single point]"},
      {"compound": "COC(=O)c1ccc(CSc2ccc3nnc(-c4ccc(OC)cc4)n3n2)o1", "Potency": "inconclusive [inhibitor, partial curve]"},
      {"compound": "O=c1c(Cl)c(Cl)cnn1Cc1ccccc1Cl", "Potency": "active: 12.6 µM"},
      {"compound": "Cc1sc2ncnc(Sc3ccccc3C(=O)Nc3ccc(C#N)cc3)c2c1C", "activity change, negative = inhibition": "inactive: 6.33%"},
      {"compound": "O=[N+]([O-])c1ccc(N=Cc2c(O)ccc3ccccc23)cc1", "Potency": "active: 22.4 µM"},
      {"compound": "CCCCN(CC)CCNC(=O)c1cc2c(-c3ccccc3F)nn(C)c2s1", "activity change, negative = inhibition": "inactive: -2.44%"},
      {"compound": "CCCCN1C(=O)NC(=O)/C(=C/c2cnc(SC)nc2)C1=O", "Potency": "active: 7.08 µM"},
      {"compound": "CCOC(=O)c1ccc2c(c1)N(CC(=O)Nc1ccc(C)cc1C)C(=O)c1ccccc1S2", "activity change, negative = inhibition": "inactive: 0.427%"},
      {"compound": "Cc1nn(Cc2ccc(C(=O)N3c4ccc(F)cc4CCC3C)o2)c(C)c1Br", "note": "(configuration not stated)", "Potency": "inconclusive [inhibitor, full curve]"},
      {"compound": "Cc1cccc(N(Cc2cc3ccc(C)cc3[nH]c2=O)C(=O)c2ccco2)c1", "Potency": "active: 4.47 µM"},
      {"compound": "Cc1ccc(-c2cccc(CN3CCN(C4CCN(C(C)C)CC4)C(CCO)C3)c2)o1", "note": "(configuration not stated)", "Potency": "inconclusive [inhibitor, partial curve]"},
      {"compound": "O=C(OCC#CCSc1nnc(-c2ccccc2)o1)c1cccs1", "Potency": "inconclusive [inhibitor, partial curve]"},
      {"compound": "CC(=O)Nc1ccc(Nc2c([N+](=O)[O-])cc(S(C)(=O)=O)cc2[N+](=O)[O-])cc1", "Potency": "inconclusive [inhibitor, partial curve]"},
      {"compound": "CCN1CC2=C(OC(N)=C(C#N)C2c2ccccc2)/C(=C\\c2ccccc2)C1", "note": "(configuration not stated)", "Potency": "inconclusive [inhibitor, partial curve]"},
      {"compound": "Cc1cc(NC(=O)c2cccnc2)ccc1Br", "activity change, negative = inhibition": "inactive: -20.2%"},
      {"compound": "Cc1ccc2nc(N(CCCN(C)C)C(=O)c3sc4ccccc4c3Cl)sc2c1", "Potency": "inconclusive [inhibitor, partial curve]"},
      {"compound": "Cc1cc2oc(=O)cc(CN3CCCCC3C)c2cc1C", "note": "(configuration not stated)", "Potency": "inconclusive [inhibitor, partial curve]"}
    ]}
  ]
}
